Out of some 310,000 compounds screened, about 14,000 (4.5%) showed an effect of 50% or more. The effect is printed as a negative number. The list shows a part of the results.
target: human ether-à-go-go-related gene (hERG) potassium channel (human, UniProt Q12809); test: primary screen, population patch clamp on CHO cells stably expressing hERG
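Further: peak tail current of the secondary pulse compared with the same well before compound.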

Sequence of human ether-à-go-go-related gene (hERG) potassium channel (Q12809 whole entry, looked up): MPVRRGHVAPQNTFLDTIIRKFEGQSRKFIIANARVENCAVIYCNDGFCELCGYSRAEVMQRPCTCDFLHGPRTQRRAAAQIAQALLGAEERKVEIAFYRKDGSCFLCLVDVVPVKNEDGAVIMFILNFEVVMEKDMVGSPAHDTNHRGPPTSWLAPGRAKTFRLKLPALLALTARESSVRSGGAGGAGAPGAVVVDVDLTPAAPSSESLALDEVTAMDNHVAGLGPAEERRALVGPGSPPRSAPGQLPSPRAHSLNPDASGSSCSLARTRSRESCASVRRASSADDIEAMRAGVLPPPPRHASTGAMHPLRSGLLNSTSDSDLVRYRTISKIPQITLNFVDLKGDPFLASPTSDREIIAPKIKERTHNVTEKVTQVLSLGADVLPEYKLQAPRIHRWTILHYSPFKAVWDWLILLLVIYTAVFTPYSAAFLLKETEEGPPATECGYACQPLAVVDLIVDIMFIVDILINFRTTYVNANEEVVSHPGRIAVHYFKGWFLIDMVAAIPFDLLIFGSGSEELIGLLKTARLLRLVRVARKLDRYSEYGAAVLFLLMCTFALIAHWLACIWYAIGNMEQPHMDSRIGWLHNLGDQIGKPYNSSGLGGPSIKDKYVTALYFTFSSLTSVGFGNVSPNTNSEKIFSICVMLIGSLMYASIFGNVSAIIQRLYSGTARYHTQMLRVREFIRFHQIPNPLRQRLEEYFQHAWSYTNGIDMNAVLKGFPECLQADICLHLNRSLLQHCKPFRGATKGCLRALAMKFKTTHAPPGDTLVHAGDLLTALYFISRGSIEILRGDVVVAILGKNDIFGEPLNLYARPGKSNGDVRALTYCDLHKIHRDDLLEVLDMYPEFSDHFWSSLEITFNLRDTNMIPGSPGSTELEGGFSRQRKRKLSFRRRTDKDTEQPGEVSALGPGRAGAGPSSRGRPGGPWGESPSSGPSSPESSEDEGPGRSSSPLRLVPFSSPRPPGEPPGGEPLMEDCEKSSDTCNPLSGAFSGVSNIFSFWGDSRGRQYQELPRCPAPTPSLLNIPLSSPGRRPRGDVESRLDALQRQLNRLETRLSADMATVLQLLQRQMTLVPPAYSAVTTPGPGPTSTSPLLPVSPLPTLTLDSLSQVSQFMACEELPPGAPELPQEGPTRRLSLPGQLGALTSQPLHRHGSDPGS

In order of falling “hERG current change (%, negative = inhibition) at 10uM” value:
1. Nn1c(SCc2ccc(Br)cc2)nnc1-c1cccnc1  59.1%
2. COc1ccc(Cl)cc1NS(=O)(=O)c1cccc2cccnc12  32.2%
3. Cc1ccc(Oc2ncnc(N)c2[N+](=O)[O-])cc1C  31.8%
4. OC1(c2ccccc2F)CCN(Cc2nnnn2CCc2ccccc2)CC1  30.9%
5. Cc1ccccc1C(=O)NC(=S)N(C)C1CCCCC1  21.2%
6. Cc1c(CC(=O)NCCC(C)C)c(=O)oc2cc3c(cc12)CCC(C)(C)O3  20.9%
7. CCOC(=O)c1c(C)nc2c(c(SC)nn2-c2ccccc2)c1N  17.9%
8. OCC[C@@H]1C[C@@H](O)[C@H](O)[C@]2(OCCCc3ccccc32)O1  16.1%
9. Nc1nc(SCC(=O)NCCc2ccccc2)[nH]c(=O)c1-c1ccccc1  15.9%
10. COc1ccc(CSc2nc(C)cc(=O)[nH]2)cc1Br  13.3%
11. O=C(O)CCNC(=O)/C(=C\C=C\c1ccccc1)NC(=O)c1ccccc1  12.6%
12. COc1ccc(CNC(=O)c2cc3cccc(O)c3oc2=N)cc1  12%
13. COc1ccc(C(=O)Nc2nc3ccc(S(C)(=O)=O)cc3s2)cc1  11.1%
14. CCCCCC1CCC(c2n[nH]c(=S)n2C)CC1 (centres unmarked)  10.9%
15. COc1ccc(S(=O)(=O)N2CCC(C(=O)N[C@H](C(=O)N3CCCC3)C(C)C)CC2)cc1  10.8%
16. CC(C)C(=O)NCCCc1ccccc1  10.3%
17. CCc1ccc(OC(C)C(=O)Nc2ccc(S(=O)(=O)Nc3cc(C)on3)cc2)cc1 (centres unmarked)  9.94%
18. CNC(C)C#Cc1ccc2oc3cc(C)c(C)cc3c(=O)c2c1 (centres unmarked)  9.45%
19. Cc1ccc(NC(=O)C2CC(=O)N(CCc3ccccc3)C2)c(C)c1 (centres unmarked)  9.44%
20. N#CC1(c2ccccc2)CCN(S(=O)(=O)c2ccc(OC(F)(F)F)cc2)CC1  9.34%
21. O=C(N/N=C/C=C/c1ccccc1)c1n[nH]c2c1CCC2  9.22%
22. CC1CC(C)CN(C(=O)C(C)N(C)CC(=O)Nc2ccccc2Cl)C1 (centres unmarked)  9.15%
23. CCOC(=O)c1c(NC(=O)CC2SC(N)=NC2=O)sc2c1CCC(C)C2 (centres unmarked)  8.51%
24. COc1ccc(/C=C/C(=O)N2CCN(C)CC2)cc1S(=O)(=O)N1CCCCC1  7.36%
25. O=C(NCC1OCCc2ccccc21)c1ccc(NC(=O)c2ccc(Cl)cc2Cl)cc1 (centres unmarked)  6.4%
26. Cc1ccc(S(=O)(=O)Oc2cccc(/C=N/Nc3ccc(C(=O)O)cc3)c2)cc1  5.85%
27. Cc1ccc2c(CC(=O)NCC(C)(C)N3CCOCC3)coc2c1  5.75%
28. CCCOc1ccc(C(=O)Nc2ccc(Cl)cn2)cc1  5.35%
29. Cc1noc(C)c1COC(=O)[C@@H](NC(=O)c1ccccc1Cl)C(C)C  5.09%
30. COC(=O)N/N=C/c1cc(OC)c(O)c([N+](=O)[O-])c1  4.64%
31. Nc1nc(Cl)nc2c1ncn2C1CC(O)C(CO)O1 (centres unmarked)  3.7%
32. Cc1c(C)n(Cc2ccc(Cl)cc2)c2ccc(C(=O)NCCN3CCOCC3)cc12  3.57%
33. O=C(c1noc2c1CCc1ccccc1-2)N1CCOCC1  3.24%
34. Nc1ccc(-n2nnnc2CN2CCOCC2)cc1  3.15%
35. Cc1ccc(-c2nc(N/N=C/c3ccncc3)c3ccccc3n2)cc1  3.06%
36. CCOP(=O)(c1c(F)c(F)c(F)c(F)c1F)C1(O)CCCCC1 (centres unmarked)  2.73%
37. CC1CCN(C(=O)C2CCC(CNS(=O)(=O)c3cccc4cccnc34)CC2)CC1 (centres unmarked)  2.51%
38. O=C(NC(Cc1c[nH]c2ccccc12)C(=O)O)/C(=C/c1ccc(F)cc1)NC(=O)c1ccccc1 (centres unmarked)  2.17%
39. CCOC(=O)C(Cc1ccccc1)C(=O)NCc1cccnc1 (centres unmarked)  1.18%
40. Clc1cccc(-c2nnc(-c3ccccc3)o2)c1  1.17%
41. CC(=O)c1ccc(NC(=O)Cn2nc(C)c([N+](=O)[O-])c2C)cc1  1.05%
42. O=C(NCCN1CCOCC1)c1ccc(Cl)c(S(=O)(=O)N2CCCC2)c1  -0.109%
43. Clc1ccc(-n2nnc(-c3ncc[nH]3)n2)cc1Cl  -0.372%
44. O=C1c2ccccc2C(=O)N1CC(=O)N1c2ccccc2Sc2ccc(C(F)(F)F)cc21  -1.52%
45. COc1ccccc1N1CCN(C(=O)C2CCN(S(=O)(=O)c3ccc4c(c3)CC(C)N4C(=O)C3CC3)CC2)CC1 (centres unmarked)  -1.74%
46. O=[N+]([O-])c1cccc(S(=O)(=O)NCCOc2cccc3cccnc23)c1  -1.85%
47. CCN(C1CCCCC1)S(=O)(=O)c1ccc(S(=O)(=O)N(CC(=O)Nc2ccccc2)C2CC2)cc1  -1.91%
48. CC1(C)CC(CC(=O)NNc2nc(-c3ccccc3)cs2)C(=O)O1 (centres unmarked)  -2.28%
49. Cc1cc2nc(SCCOC(=O)Nc3ccccc3)nc(C)c2cc1C  -2.78%
50. Cc1ccnc(NC(c2ccsc2)c2ccc3ccc(C)nc3c2O)c1 (centres unmarked)  -4.03%
51. CCc1ccc(OCCCCCn2ccnc2)cc1  -4.41%
52. O=C(NCCCN1CCOCC1)c1ccc(Cl)c([N+](=O)[O-])c1  -4.74%
53. COc1ccccc1N(CC(=O)Nc1cc(C)on1)S(=O)(=O)c1cccc(C(F)(F)F)c1  -5.55%
54. O=C1C2CCCN2C(c2ccc(F)cc2)N1c1cccc(Cl)c1 (centres unmarked)  -6.29%
55. CCC(C)c1ccc(S(=O)(=O)N2CCN(C(=O)COc3ccc4c(C)cc(=O)oc4c3)CC2)cc1 (centres unmarked)  -6.43%
56. CCOC(=O)CSC1=N/C(=C\c2cccnc2)C(=O)N1c1ccc(OC)cc1  -7.14%
57. COc1ccc2cc(C(=O)N3CCN(Cc4ccc5c(c4)OCO5)CC3)[nH]c2c1  -8.42%
58. CCC[C@@H](OS(N)(=O)=O)[C@@H](Cc1ccccc1)C(=O)OCC  -9%
59. Cc1ccc(C(=O)N2CCC3(CC2)Oc2ccc(Cl)cc2C(=O)C32CC(c3cccnc3)=NO2)s1 (centres unmarked)  -9.25%
60. COc1ccc(S(=O)(=O)NC(C)C(=O)Nc2ccccc2F)cc1 (centres unmarked)  -9.5%
61. CCC(C)N(C(=O)CSc1ncnc2c1cnn2-c1ccccc1)C1CCS(=O)(=O)C1 (centres unmarked)  -9.61%
62. Cl.c1ccc(-c2nc(NCC3CCCO3)c3oc4ccccc4c3n2)cc1 (centres unmarked)  -9.67%
63. CC(C)(C)n1nnnc1C(c1cccs1)N(Cc1ccc(Cl)cc1)CC1CCCO1 (centres unmarked)  -9.8%
64. Cc1ccc(-c2nnn(CC(=O)N(c3ccccc3)C(C(=O)NC3CCCC3)c3ccncc3)n2)o1 (centres unmarked)  -10.6%
65. N#Cc1cc2c(nc1SCc1cccnc1)CCC2  -10.7%
66. O=C(NCc1ccco1)C1CCN(S(=O)(=O)N2CCOCC2)CC1  -13.1%
67. CCCNC(=O)Nc1ccc(NC(C)=O)cc1  -13.4%
68. COc1ccc(-c2nc3nc(SC)nn3cc2C)cc1F  -13.4%
69. COc1ccc(C(=O)OCC(=O)Nc2ccc([N+](=O)[O-])cc2OC)c(O)c1  -15.3%
70. O=C(NC1CCN(C(=O)c2cccs2)CC1)c1ccccc1  -19.3%
71. CCCC(=O)Nc1sc(Cc2ccccc2)c(C)c1C(N)=O  -19.7%
72. CCC(=O)N1CCN(c2ccc(Cl)cc2NC(=O)c2ccc([N+](=O)[O-])o2)CC1  -21%
73. Cc1ccc(C(=O)N/C(=C/c2ccc(-c3cccc([N+](=O)[O-])c3)o2)C(=O)NC(C)(C)C)cc1  -21.9%
74. CCN(C(=O)COc1ccccc1C(=O)NCc1ccccc1)C1CCS(=O)(=O)C1 (centres unmarked)  -22.1%
75. Cn1c(=O)cc(N2CCOCC2)[nH]c1=O  -23.4%
76. CCCOC(=O)CC1C(=O)NCCN1Cc1cc(OC)cc(OC)c1 (centres unmarked)  -26.1%
77. CCOc1cnn(Cc2ccccc2)c(=O)c1SCc1ccccc1  -30.1%
78. COCC(C)n1c(SCC(=O)NC(=O)NC2CCCC2)nc2ccccc2c1=O (centres unmarked)  -30.7%
79. Cc1c(Cl)cccc1NC(=O)c1cccc(OC(F)F)c1  -31.1%
80. CCS(=O)(=O)c1ccc2oc(SCC(=O)NC34CC5CC(CC(C5)C3)C4)nc2c1  -33.7%
81. CCOC(=O)C1CCN(c2ncnc3c2cnn3-c2ccccc2)CC1  -35.7%
82. O=C(c1ccc(-c2cc(Cl)ccc2Cl)o1)N1CCOCC1  -41.8%
83. COc1ccc(C(CNC(=O)c2cccc(NS(=O)(=O)c3ccccc3)c2)N(C)C)cc1 (centres unmarked)  -46.4%
84. CN(C)C=NC(=O)c1ccc([N+](=O)[O-])c(CS(=O)(=O)c2ccc(Cl)cc2)c1  -49.6%
85. COc1nc(NCCN2CCOCC2)nc(Nc2ccccc2)n1  -50.5%
86. COc1cc(C(C(=O)Nc2c(C)cccc2C)N(C)C(=O)c2ccc(-n3cnnn3)cc2)ccc1O (centres unmarked)  -67.7%

— article PMC4336329 (PLoS ONE, 2015)
